In the RNAGym collection of RNA variant scans (doi:10.1093/nar/gkz1192):
Read counts are not given, so values of variants with three or more changes are uncertain.

B1: CPEB3 Ribozyme (parent)
chain: UAACAGGGGGCCACAGCAGAAGCGUUCACGUCGCAGCCCCUGUCAGAUUCUGGUGAAUCUGCGAAUUCUGCUGUAUAUCUC

Variants of: B1
Assay: self-cleavage, relative activity (ratio to wild type); higher = more cleavage; in vitro, sequencing
Summary of the method: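 Barcoded CPEB3 ribozyme mutants, produced by rounds of error-prone PCR, self-cleaved while being transcribed with T7 RNA polymerase for 5 hours at 37°C and during a subsequent 15 min DNase I step before EDTA was added. Sequencing of template-switched cDNA on Illumina gave cleaved and total reads, and DNA sequencing assigned barcodes to variants. Each variant's relative activity is its cleaved/total read fraction divided by the unmutated ribozyme's fraction, averaged across three batches. A variant needed a minimum of 5 reads.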

Variant | self-cleavage
U1A A2C C17A U25C A35G G52A | 0.08
U1A A2G A35G U54A A65U U67A | 0.89
U1A A2G C11U U67G | 0.05
U1A A2G G6A U41C U78C | 0.46
U1A A2U U60C U69G | 0.42
U1A A3C C23A U72A | 0.32
U1A A3C C27A U60C G61C | 0.2
U1A A3G A18G A35G U41A U54C A77G | 0.33
U1A A3G A20U U26C U72C | 0.19
U1A A3G A21G A75G | 0.75
U1A A3G U25C C32U A35U A47G | 0.11
U1A A3U A20G | 1
U1A A3U A28G | 1.03
U1A A5G A15G A64U | 0.48
U1A A5G A15U A45G U48C U80C | 0.06
U1A A5G A20G U43C U58C U67A | 0.11
U1A A5G A57G A64U | 0.53
U1A A5G A65C | 0.31
U1A A5G C27A U49A U54C U69C | 0.22
U1A A5G U43A U51G A57G | 0.45
U1A A5U A18G A56G U58C U72C U76A | 0.23
U1A A13G A21G A47G A65G | 0.16
U1A A13G A35G | 0.59
U1A A13G C14G U43A | 0.79

Variant | self-cleavage
U1A A13G C39G | 0.28
U1A A13G G24A | 0.15
U1A A13U A15G A21G C32U A35C U80C | 0.47
U1A A13U A15G A28G G73A | 1.06
U1A A13U A20G U80C | 1.09
U1A A13U A47G | 1.24
U1A A13U C50U U58G | 0.34
U1A A13U G53A U67A U72C | 0.29
U1A A13U U43G | 0.19
U1A A15C U54A | 0.75
U1A A15G C29A | 0.62
U1A A15G U41C U60A G73A U74C | 0.32
U1A A15G U51A | 0.97
U1A A15U A57G | 0.51
U1A A15U C59G U66C | 0.14
U1A A18G A65G | 0.34
U1A A18G C38U U51A | 0.39
U1A A18G G30A A57G | 0.22
U1A A18G U43A | 0.98
U1A A18U U25C A65G | 0.14
U1A A18U U26C G36C U69C | 0.06
U1A A18U U31A U48G A64U C81A | 0.05
U1A A18U U49C | 0.09
U1A A18U U60C A75U U80C | 0.2

Variant | self-cleavage
U1A A18U U66C | 0.2
U1A A20C C34U G61C U80G | 0.04
U1A A20G A28G C32G U72C | 0.08
U1A A20G A28U U67C | 0.29
U1A A20G U26A U69C | 0.44
U1A A20G U31C A56G U69C U78A | 0.06
U1A A20G U43G | 0.38
U1A A20G U58C U66A U76A | 0.05
U1A A20G U67C U78A | 0.39
U1A A20U U72G | 0.18
U1A A21G A47G U49C A65G U78A | 0.2
U1A A21G C29G C38A A45U U51G U72C | 0.11
U1A A21G C62U | 0.26
U1A A21G U41A C68A | 0.06
U1A A21G U78C | 0.63
U1A A21U A28G | 0.22
U1A A21U U41C U51C U78C | 0.11
U1A A28G A45G | 0.3
U1A A28G A57G | 0.34
U1A A28G G42A | 0.14
U1A A28G U41C U58C A77U | 0.14
U1A A28G U49A U51C G70U | 0.14
U1A A28U A35G A65G U67C U78G | 0.44
U1A A28U G70C A75U | 0.17

Variant | self-cleavage
U1A A28U U41C | 0.99
U1A A28U U60C A65G U67C U78G | 0.08
U1A A35C C40U | 0.23
U1A A35G A45G C62U G63U | 0.23
U1A A35G C40U | 1.24
U1A A35U U41C | 0.36
U1A A35U U48C G53A | 0.21
U1A A45U U80G | 0.48
U1A A47G G52A | 0.94
U1A A47G U80C | 1.1
U1A A47U U74A | 0.34
U1A A57U A64G | 0.44
U1A A64G A65G | 0.17
U1A A75U A77U | 1.16
U1A C11G A13U A28U U72C | 0.76
U1A C11G A28G U69C A75G | 0.07
U1A C11G U26A | 0.49
U1A C11U U54A | 0.44
U1A C12U U26A A56U U67C U80C | 0.24
U1A C12U U41C A57U A64G U67A | 0.31
U1A C14A U25A C29G G63A | 0.17
U1A C14G U25A C29G A64U | 0.04
U1A C17A U25C U43C C50U | 0.07
U1A C17U C38U U69C | 0.08

Variant | self-cleavage
U1A C23G U25C U60G A64U | 0.06
U1A C23U C32A U69A U74C U78C | 0.12
U1A C27A A35U U60C | 0.07
U1A C29U U49C A57G U66C | 0.16
U1A C32U G52C G53U U60A | 0.09
U1A C38G U51A U72C | 0.08
U1A C39A U48C | 0.1
U1A C39U G53U A64U | 0.13
U1A C39U U76C | 0.82
U1A C44U C62A | 0.19
U1A G6U C11U U25C | 0.19
U1A G7A A15G U41A U48C A57G | 0.07
U1A G8A A15G U72C | 0.1
U1A G9A C11U A28U U54C G70U U78A | 0.04
U1A G9A G52A | 0.08
U1A G9U A21G U25C U26C U31A A45G | 0.57
U1A G9U U26G A35G U41C A45G | 0.25
U1A G10C A28G U31C A35U A45G U69A | 0.14
U1A G19C U41C | 0.17
U1A G19U G30C G36A | 0.06
U1A G24A A57G | 0.25
U1A G24A U25C A57U | 0.18
U1A G24U U41C | 0.28
U1A G42A U72A | 0.11

Variant | self-cleavage
U1A G55A U66C | 0.25
U1A U25C U26C A35U U60C | 0.13
U1A U25C U48C U67C U78C | 0.08
U1A U25C U69C | 0.26
U1A U26C A28C | 0.08
U1A U26C U41A U49C | 0.07
U1A U26C U58C U80C | 0.33
U1A U31C A65G U69G U78C | 0.14
U1A U31C U69C | 0.41
U1A U31C U72C U78C | 0.92
U1A U41A U51A | 0.12
U1A U41C A56G A57U U60A | 0.22
U1A U41C U51C U60C | 0.25
U1A U41C U72C U80C | 1.22
U1A U41G A57G A77G | 0.19
U1A U43A U48C U51C C68U U78C | 0.34
U1A U43C U76C | 0.63
U1A U48C U51C A57G U67C | 0.17
U1A U49A A64G A75G | 0.18
U1A U51C A57G A64U | 0.13
U1A U58C U72C U76A | 0.44
U1A U60A A64G U80C | 0.42
U1A U66C U74C | 0.71
U1A U67A A75C U80A | 0.46

Variant | self-cleavage
U1A U67C A75U | 0.32
U1A U67G U69C U80A | 0.32
U1A U69C U72C | 0.36
U1A U72C U74C | 1.2
U1C A2C C12G | 0.47
U1C A2C U54C C59A C71U | 0.12
U1C A2G A5G U25C A45U U69G | 0.42
U1C A2G A15G C29A A57G C62A | 0.09
U1C A2G A18C A21U C44U A56C U80A | 0.05
U1C A2G A20G C23U U43C | 0.41
U1C A2G C12A A13G U69C | 0.2
U1C A2G G6A C14A C34G U51C | 0.05
U1C A2G U25C U51A A56G A64G | 0.28
U1C A2G U43A U49C A65G C71G | 0.13
U1C A2G U69C C81U | 0.22
U1C A2U A13G A20U | 0.14
U1C A2U A13U U26C A28U U67C | 0.06
U1C A2U A18C C37A U60C | 0.05
U1C A2U A18G U51A A64U A65G C68A | 0.2
U1C A2U A21G C40A G42A U78C | 0.07
U1C A2U C12U G19U U41C G46A U60A | 0.15
U1C A2U U60C | 0.17
U1C A2U U74C | 0.59
